Results reported in PMC4242493.
This is one part of the list. The list includes weakly bound sequences.

These sequences were tested against MaxL homodimer (UniProt P61244) (assay: universal protein-binding microarray (PBM)). Settings: PBS-based mixture, 10 nM His-tagged protein dimer, 2% milk, 200 ng/uL BSA, 50 ng/uL salmon testes DNA, 0.02% TX-100; detection with Alexa 488 anti-His …; high values mean tight binding; most listed sequences are background and not binding sites; double strand, one strand shown.
Chain of UniProt P61244 (P61244 whole entry): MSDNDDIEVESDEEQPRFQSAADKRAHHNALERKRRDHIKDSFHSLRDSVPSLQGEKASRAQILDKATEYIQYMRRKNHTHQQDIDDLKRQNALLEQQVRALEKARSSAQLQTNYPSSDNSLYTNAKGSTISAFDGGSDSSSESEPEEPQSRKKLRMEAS
CATGTCTA gave a binding signal (normalized occupancy) of 0.0854. Work on AGGATACG yielded a binding signal (normalized occupancy) of 0.0802. With ACTGCACT the binding signal (normalized occupancy) was 0.0733. Work on CAGCGAAG yielded a binding signal (normalized occupancy) of 0.0648. CGCCCACC showed a binding signal (normalized occupancy) of 0.0761. With CAACCTCG the binding signal (normalized occupancy) was 0.0756. CCACGAAG showed a binding signal (normalized occupancy) of 0.0767. GACTCGCA showed a binding signal (normalized occupancy) of 0.0748. With CGTACCAC the binding signal (normalized occupancy) was 0.0807. In the case of CTCTTTAC, the binding signal (normalized occupancy) is reported as 0.0768. For CGCCCCCG, the binding signal (normalized occupancy) was 0.0707. With AGTAGCAC the binding signal (normalized occupancy) was 0.0735. Sequence AATGGGAA has a binding signal (normalized occupancy) of 0.0775. ACCTCCGA gave a binding signal (normalized occupancy) of 0.0734. Sequence TAGCAACA has a binding signal (normalized occupancy) of 0.0783. Work on CTCGGAAC yielded a binding signal (normalized occupancy) of 0.0709. With CAAATCCA the binding signal (normalized occupancy) was 0.0788. Work on TAACACAA yielded a binding signal (normalized occupancy) of 0.0902. Sequence ACGAATCC has a binding signal (normalized occupancy) of 0.0802. For TTGCCAAA, the binding signal (normalized occupancy) was 0.0718. With ACTGTTAT the binding signal (normalized occupancy) was 0.0771. Work on CAGCCTAC yielded a binding signal (normalized occupancy) of 0.0736. CTAATGCC was tested, and the binding signal (normalized occupancy) was 0.0701. Work on CCGAACCA yielded a binding signal (normalized occupancy) of 0.072. In the case of AAGTGGGA, the binding signal (normalized occupancy) is reported as 0.0771. For CGGACAGC, the binding signal (normalized occupancy) was 0.0666. ACTCTCAC showed a binding signal (normalized occupancy) of 0.0818. For ATGAACAC, the binding signal (normalized occupancy) was 0.0828. In the case of CCCCCTGA, the binding signal (normalized occupancy) is reported as 0.0765. Sequence CTCGCACA has a binding signal (normalized occupancy) of 0.0834. Sequence CTTCGATA has a binding signal (normalized occupancy) of 0.0735. In the case of ACTCACAG, the binding signal (normalized occupancy) is reported as 0.0738. TCTAACAA gave a binding signal (normalized occupancy) of 0.0753. Sequence CTCCGTCC has a binding signal (normalized occupancy) of 0.0682. AATCATGA gave a binding signal (normalized occupancy) of 0.0851. Work on GGGCAGTA yielded a binding signal (normalized occupancy) of 0.0774. For ATGCGTTA, the binding signal (normalized occupancy) was 0.0896. With AGCGCCGC the binding signal (normalized occupancy) was 0.0654. For AGGCTGGA, the binding signal (normalized occupancy) was 0.0721. CTACTATA was tested, and the binding signal (normalized occupancy) was 0.079. GAATCCTA showed a binding signal (normalized occupancy) of 0.0741. In the case of ATAGCCTA, the binding signal (normalized occupancy) is reported as 0.0746. Work on CATAACAG yielded a binding signal (normalized occupancy) of 0.0793. AACGTGCT was tested, and the binding signal (normalized occupancy) was 0.115. Sequence CCGAAGAG has a binding signal (normalized occupancy) of 0.071. Work on ACTGCGTA yielded a binding signal (normalized occupancy) of 0.0644. ACAGGCGT was tested, and the binding signal (normalized occupancy) was 0.079. In the case of TGAGACAA, the binding signal (normalized occupancy) is reported as 0.0748. With GCAGAAAC the binding signal (normalized occupancy) was 0.0734. Sequence ATACGGTC has a binding signal (normalized occupancy) of 0.0765. For CCATGTAC, the binding signal (normalized occupancy) was 0.086. Work on CTGAACGA yielded a binding signal (normalized occupancy) of 0.0737. With ACTGAACG the binding signal (normalized occupancy) was 0.0736. Work on CACAGGGC yielded a binding signal (normalized occupancy) of 0.0742. TATGCTCA showed a binding signal (normalized occupancy) of 0.0848. Work on CCCCAGGA yielded a binding signal (normalized occupancy) of 0.0748. CGGGGTCC was tested, and the binding signal (normalized occupancy) was 0.0731. ACTTTCCC showed a binding signal (normalized occupancy) of 0.0751. CGACCTCC gave a binding signal (normalized occupancy) of 0.0746. For AAAGTCCG, the binding signal (normalized occupancy) was 0.0687. For TCAGGCAA, the binding signal (normalized occupancy) was 0.0718. ATTCTTTG gave a binding signal (normalized occupancy) of 0.0761. For ACATTCGA, the binding signal (normalized occupancy) was 0.0746. With CCTGCACC the binding signal (normalized occupancy) was 0.0718. For AACTAAAA, the binding signal (normalized occupancy) was 0.0722. Work on AGCTATAA yielded a binding signal (normalized occupancy) of 0.0785. Work on ATAAACAC yielded a binding signal (normalized occupancy) of 0.0841. CCCGACGA gave a binding signal (normalized occupancy) of 0.0723. AACCGGCT gave a binding signal (normalized occupancy) of 0.0674. AAGAACAA showed a binding signal (normalized occupancy) of 0.0745. ATAAATAA was tested, and the binding signal (normalized occupancy) was 0.0785. AGCAGCAA gave a binding signal (normalized occupancy) of 0.0694. With AGGAGTAT the binding signal (normalized occupancy) was 0.0782. CATTGAGG showed a binding signal (normalized occupancy) of 0.0789. For GTACACCA, the binding signal (normalized occupancy) was 0.0824. For AACATGTT, the binding signal (normalized occupancy) was 0.0895. In the case of CAGGTACC, the binding signal (normalized occupancy) is reported as 0.0695. With GAGCTCCA the binding signal (normalized occupancy) was 0.0721. AAAAGCCA gave a binding signal (normalized occupancy) of 0.0705. Sequence CTTTACGA has a binding signal (normalized occupancy) of 0.0705. With CGCCGCGA the binding signal (normalized occupancy) was 0.0721. With GAAGTACC the binding signal (normalized occupancy) was 0.0766. Work on CCCCTCAA yielded a binding signal (normalized occupancy) of 0.0738. CCAGACAC was tested, and the binding signal (normalized occupancy) was 0.0765. GCACACGA gave a binding signal (normalized occupancy) of 0.0896. Sequence CAGTGGAG has a binding signal (normalized occupancy) of 0.074. CCCTTTAA showed a binding signal (normalized occupancy) of 0.0755. CAAGTGTG gave a binding signal (normalized occupancy) of 0.086. Sequence CCGGCGTA has a binding signal (normalized occupancy) of 0.0672. For AGCGTCCG, the binding signal (normalized occupancy) was 0.0696. With CGTTACTC the binding signal (normalized occupancy) was 0.0776. With GTCTGACA the binding signal (normalized occupancy) was 0.077. Work on GTGGTACA yielded a binding signal (normalized occupancy) of 0.0857. ACAGTTAT gave a binding signal (normalized occupancy) of 0.0749. For GGGCGGGA, the binding signal (normalized occupancy) was 0.0826. ACCTTGCC was tested, and the binding signal (normalized occupancy) was 0.0758. Work on CTATATAG yielded a binding signal (normalized occupancy) of 0.0853. With GTGTAACA the binding signal (normalized occupancy) was 0.0821. With TGACTTAA the binding signal (normalized occupancy) was 0.0738. For CCGCGCTC, the binding signal (normalized occupancy) was 0.07. In the case of CAAAACGG, the binding signal (normalized occupancy) is reported as 0.0749. Work on CCATATCA yielded a binding signal (normalized occupancy) of 0.0816. ACATCCTC gave a binding signal (normalized occupancy) of 0.0831. For ACCTTAGA, the binding signal (normalized occupancy) was 0.0714. For AATAGCCA, the binding signal (normalized occupancy) was 0.0717. GGCGAGCA showed a binding signal (normalized occupancy) of 0.0723. CTAGGGTC showed a binding signal (normalized occupancy) of 0.0714. CACCCGGC gave a binding signal (normalized occupancy) of 0.0772. CACCGTTA showed a binding signal (normalized occupancy) of 0.0779. In the case of ACATCATA, the binding signal (normalized occupancy) is reported as 0.0849.
